# Measured values published in publication PMC4461266.
# By UniProt entry, the sequences of proteins in these tests, tags left out. Where a name states a change or a piece, a line headed by the entry shows the natural chain unless it says otherwise.
# UniProt P03431: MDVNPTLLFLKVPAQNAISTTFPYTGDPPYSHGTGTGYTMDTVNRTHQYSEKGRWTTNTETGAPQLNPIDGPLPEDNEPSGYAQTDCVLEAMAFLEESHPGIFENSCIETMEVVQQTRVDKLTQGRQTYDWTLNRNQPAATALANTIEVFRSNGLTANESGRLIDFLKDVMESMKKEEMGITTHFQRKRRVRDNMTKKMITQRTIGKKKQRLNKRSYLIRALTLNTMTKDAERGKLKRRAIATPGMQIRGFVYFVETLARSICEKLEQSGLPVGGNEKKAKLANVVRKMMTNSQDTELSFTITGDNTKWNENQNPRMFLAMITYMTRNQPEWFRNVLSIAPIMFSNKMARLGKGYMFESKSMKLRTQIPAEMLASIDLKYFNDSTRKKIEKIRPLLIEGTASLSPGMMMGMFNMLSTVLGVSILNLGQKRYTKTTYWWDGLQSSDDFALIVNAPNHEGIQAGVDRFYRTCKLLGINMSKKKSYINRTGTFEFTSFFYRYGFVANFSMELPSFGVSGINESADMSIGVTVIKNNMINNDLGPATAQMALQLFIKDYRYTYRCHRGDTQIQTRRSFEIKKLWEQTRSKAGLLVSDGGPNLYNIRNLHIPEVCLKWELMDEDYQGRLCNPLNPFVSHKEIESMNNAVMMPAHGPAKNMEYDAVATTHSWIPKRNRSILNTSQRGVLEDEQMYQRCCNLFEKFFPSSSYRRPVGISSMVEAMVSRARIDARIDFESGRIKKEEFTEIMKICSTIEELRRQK
# UniProt P03466: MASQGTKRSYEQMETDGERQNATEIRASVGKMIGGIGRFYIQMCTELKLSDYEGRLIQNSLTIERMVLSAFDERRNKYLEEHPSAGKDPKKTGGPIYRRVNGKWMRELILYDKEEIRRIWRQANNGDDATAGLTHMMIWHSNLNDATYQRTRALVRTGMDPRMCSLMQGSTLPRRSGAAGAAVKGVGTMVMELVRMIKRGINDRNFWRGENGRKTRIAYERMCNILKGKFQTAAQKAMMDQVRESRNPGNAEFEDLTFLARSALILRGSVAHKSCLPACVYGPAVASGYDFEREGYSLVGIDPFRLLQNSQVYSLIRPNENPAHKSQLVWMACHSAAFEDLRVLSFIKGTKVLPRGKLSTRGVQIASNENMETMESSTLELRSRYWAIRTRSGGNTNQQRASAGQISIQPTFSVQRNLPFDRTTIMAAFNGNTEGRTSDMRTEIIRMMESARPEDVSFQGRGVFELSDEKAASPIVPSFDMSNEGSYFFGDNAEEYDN
# UniProt P03430: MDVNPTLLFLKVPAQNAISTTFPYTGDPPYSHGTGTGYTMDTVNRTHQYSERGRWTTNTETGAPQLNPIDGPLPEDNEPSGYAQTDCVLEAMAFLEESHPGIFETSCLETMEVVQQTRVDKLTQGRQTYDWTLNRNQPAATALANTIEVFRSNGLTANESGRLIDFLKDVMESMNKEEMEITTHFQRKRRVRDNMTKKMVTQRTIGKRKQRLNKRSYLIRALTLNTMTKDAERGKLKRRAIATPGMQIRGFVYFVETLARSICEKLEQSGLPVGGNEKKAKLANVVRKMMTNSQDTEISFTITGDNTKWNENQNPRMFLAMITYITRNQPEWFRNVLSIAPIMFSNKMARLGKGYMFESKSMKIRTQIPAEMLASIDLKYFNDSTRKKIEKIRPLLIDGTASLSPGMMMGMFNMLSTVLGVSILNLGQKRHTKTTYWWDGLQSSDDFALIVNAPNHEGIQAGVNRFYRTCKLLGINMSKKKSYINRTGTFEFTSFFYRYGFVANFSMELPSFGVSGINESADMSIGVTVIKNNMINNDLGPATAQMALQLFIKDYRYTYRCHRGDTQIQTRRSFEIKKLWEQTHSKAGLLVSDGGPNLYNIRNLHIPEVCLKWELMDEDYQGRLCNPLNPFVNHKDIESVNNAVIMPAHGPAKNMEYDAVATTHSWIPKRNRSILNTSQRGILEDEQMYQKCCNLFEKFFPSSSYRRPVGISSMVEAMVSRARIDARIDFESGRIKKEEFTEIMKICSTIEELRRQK
# UniProt Q13049: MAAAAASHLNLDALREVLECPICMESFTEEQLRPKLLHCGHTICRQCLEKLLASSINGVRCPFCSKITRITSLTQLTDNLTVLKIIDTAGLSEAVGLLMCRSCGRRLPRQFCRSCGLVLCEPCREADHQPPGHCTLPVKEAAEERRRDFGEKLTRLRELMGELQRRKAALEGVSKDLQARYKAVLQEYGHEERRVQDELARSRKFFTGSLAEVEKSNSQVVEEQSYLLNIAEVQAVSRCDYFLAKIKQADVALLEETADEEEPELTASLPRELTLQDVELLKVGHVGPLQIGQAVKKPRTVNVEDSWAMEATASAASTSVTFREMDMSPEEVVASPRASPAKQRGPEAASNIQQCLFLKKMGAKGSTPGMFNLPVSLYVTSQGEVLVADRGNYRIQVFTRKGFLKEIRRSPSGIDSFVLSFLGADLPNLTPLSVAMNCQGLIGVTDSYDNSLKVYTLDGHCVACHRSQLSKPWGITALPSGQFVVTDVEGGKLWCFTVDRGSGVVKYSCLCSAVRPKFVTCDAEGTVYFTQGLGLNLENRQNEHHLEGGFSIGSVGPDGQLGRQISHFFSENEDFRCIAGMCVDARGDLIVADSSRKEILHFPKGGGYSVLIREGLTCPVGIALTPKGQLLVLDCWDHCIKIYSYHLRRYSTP
# No constants are given. Whether binding was seen depends on the method and setting. Binding seen in cells or lysates may run through a third protein. Some entries that bind do so weakly or less than the wild type.
# Tests used:
# Assay in all cases: co-IP
# [1] = target: FLAG-tagged PB1 derived from influenza A/Puerto Rico/8/1934 (PR8) (influenza A virus A/Puerto Rico/8/1934 (H1N1)) (UniProt P03431)
# [2] = target: C-terminal PB1 fragment (residues 493-757), PR8, fused with FLAG epitope (influenza A virus A/Puerto Rico/8/1934 (H1N1)) (UniProt P03431)
# [3] = target: PR8 derived FLAG-tagged NP (influenza A virus A/Puerto Rico/8/1934 (H1N1)) (UniProt P03466)
# [4] = target: FLAG-tagged PB1 from WSN, A/WSN/1933 (H1N1) (influenza A virus A/WSN/1933 (H1N1)) (UniProt P03430)
# [5] = target: viral PB1 (PR8 IAV infection) (influenza A virus A/Puerto Rico/8/1934 (H1N1)) (UniProt P03431)
Substance,binding [1],binding [2],other results
TRIM32 CC-containing segment (residues 140-265) tagged with GFP (from UniProt Q13049 140-265) (domain or fragment),binds,binds,
TRIM32 fused with HA epitope (from UniProt Q13049 1-653),binds,,binding [3]: no binding
TRIM32-GFP (from UniProt Q13049 1-653),binds,,binding [4]: binds
V5-TRIM32 (from UniProt Q13049 1-653),,binds,
endogenous TRIM32 (tripartite motif-containing protein 32) (from UniProt Q13049 1-653),,,binding [5]: binds
